According to PubChem BioAssay AID1671193 (National Center for Advancing Translational Sciences (NCATS), 2021):
In all, about 150,000 compounds went through this assay and about 180 (0.12%) were called active. Inconclusive results, whose numbers are uncertain, are shown with a selection of clear calls. The call rests on the fitted dose curve; in most records, active means well fitted cell-killing curve with a large enough effect; inconclusive means small, poorly fitted or top-dose-only effect, or effect the other way; inactive means flat fitted curve, though single readings scatter. Where the call is inconclusive, the potency comes from a doubtful curve fit.

Assay: GF-AFC viability counterscreen for inhibitors of alpha-synuclein gene (SNCA) expression; further: nearly all actives have a fitted effect of over 30% in size
Details: HEK-293-SNCA-luc viability, GF-AFC fluorescence, 24 h; series mostly up to 57.1 µM
Procedure, shortened: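 HEK-293-SNCA-luc cells (1500/well) plated 24 h, then exposed 24 h to a dilution series; GF-AFC added 30 min at 37C, fluorescence 405/540 nm; normalised to medium-only and DMSO wells, Hill fit.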
Potency means the concentration at half of the fitted maximal effect; tags describe the fitted curve by direction and shape.

With `CCC(CC)c1cc([C@H]2CN3CC[C@H]2C[C@@H]3CNC(=O)COC)nc(-c2ccncc2)n1` as the compound, how does the Potency read?
The Potency was “inactive”.

Which Potency does the source give for `Ic1ccccc1CNC1C2CCN(CC2)C1C(c1ccccc1)c1ccccc1` (stereo not drawn) here?
The Potency was active: 22.4 µM.

With `CCOC(=O)c1ccc(N2CC3CCC(C2)N3CC(F)(F)F)nn1` as the compound, how does the Potency read?
Its Potency is “inactive”.

Which Potency does the source give for `COC1C(O)C(C)OC(OC2C(CO)O[C@@H](O[C@@H]3CC4CCC5C(CC[C@]6(C)[C@@H](C7=CC(=O)OC7)CC[C@]56O)[C@@]4(C)[C@H](OC(C)=O)C3)C(O)C2O)C1O` (stereo partly drawn) here?
Its Potency is inconclusive: 9.98 µM [cytotoxic, single point].

With `O=C(Nc1ccccc1)OC[C@H]1C[C@@H]2CCN1C[C@@H]2c1cc(C2CCCC2)nc(-c2ccncc2)n1` as the compound, how does the Potency read?
Its Potency is inconclusive: 25.1 µM [cytotoxic, single point].

Which Potency does the source give for `CO[C@H]1C[C@H](O[C@H]2CC[C@]3(CO)[C@H]4CC[C@]5(C)[C@@H](C6=CC(=O)OC6)CC[C@]5(O)[C@@H]4CC[C@]3(O)C2)O[C@H](C)[C@H]1O` here?
Its Potency is inconclusive: 0.822 µM [cytotoxic, full curve, poor fit].

Which Potency does the source give for `COc1ccc(CNC[C@H]2C[C@@H]3CCN2C[C@@H]3c2cc(-c3ccc(F)cc3)nn2C)cc1` here?
Its Potency is “inactive”.

For `O=C(Cc1ccccc1)N1Cc2ccccc2CC2(CCCN2Cc2ccncc2)C1` (stereo not drawn), which Potency is on record?
Its Potency is “inactive”.

For `Cn1nc(-c2cccs2)cc1[C@H]1CN2CC[C@H]1C[C@@H]2COC(=O)Nc1ccccc1`, which Potency is on record?
The Potency was inconclusive: 5.62 µM [cytotoxic, full curve, poor fit].

With `CCOC(=O)c1c(C(C#N)=CN)c2ccc(Cl)c(Cl)c2n1C` as the compound, how does the Potency read?
Its Potency is inconclusive: 3.04 µM [cytotoxic, full curve, poor fit].

With `Nc1c(C(=O)Nc2ccc(Br)cc2F)sc2nc3c(cc12)N1CCC3CC1` as the compound, how does the Potency read?
Its Potency is inconclusive: 10 µM [rising, partial curve].

Which Potency does the source give for `COc1ccc(NC(=O)OC[C@H]2C[C@@H]3CCN2C[C@@H]3c2cc(C3CCCC3)nc(-c3ccncc3)n2)cc1` here?
The Potency was inconclusive: 39.8 µM [cytotoxic, single point].

For `O=[N+]([O-])c1cc(O)c(O)c([N+](=O)[O-])c1`, which Potency is on record?
Its Potency is inconclusive: 39.8 µM [cytotoxic, single point].

For `O=C(NC[C@H]1C[C@@H]2CCN1C[C@@H]2CN1CCC(Cc2ccccc2)CC1)c1ccc(C(F)(F)F)cc1`, which Potency is on record?
Its Potency is “inactive”.

Which Potency does the source give for `CC[C@@H]1C[C@H]2CC[C@H](O2)[C@H](C)C(=O)O[C@@H](C)C[C@@H]2CC[C@@H](O2)[C@@H](C)C(=O)O[C@H](C)C[C@H]2CC[C@H](O2)[C@H](C)C(=O)O[C@@H](C)C[C@@H]2CC[C@@H](O2)[C@@H](C)C(=O)O1` here?
The Potency was inconclusive: 0.0998 µM [cytotoxic, full curve].

Which Potency does the source give for `O=C(c1cccc(Cl)c1)N1CCC(C(=O)O)(c2ccccc2)CC1` here?
The Potency was “inactive”.

Which Potency does the source give for `CC1=CC2/C=C(\C)CCCC(O)/C=C/C(=O)OC23C(=O)NC(CC(C)C)C3C1C` (stereo not drawn) here?
Its Potency is “inactive”.

With `Cc1ccccc1-c1ccc2n(c1=O)C[C@H]1C[C@@H]2CN(C(=O)NC2CCCCC2)C1` as the compound, how does the Potency read?
Its Potency is “inactive”.

Which Potency does the source give for `C/C=C(/C)C(=O)O[C@H]1[C@@H]2[C@H](C)C(=O)O[C@@H]2C[C@@H](C)[C@@H]2C=CC(=O)[C@]21C` here?
The Potency was inconclusive: 23.3 µM [cytotoxic, single point].

For `CC(C)NC(=O)N1CCCC2(CCN(C(=O)Oc3ccccc3)CC2)C1`, which Potency is on record?
Its Potency is inconclusive: 25.1 µM [cytotoxic, single point].

With `CC(C)N(CCC(C(N)=O)(c1ccccc1)c1ccccn1)C(C)C` (stereo not drawn) as the compound, how does the Potency read?
The Potency was inconclusive: 33.6 µM [cytotoxic, single point].

For `C[C@]12CCC(=O)C=C1CC[C@@H]1[C@H]3CC[C@](C)(O)[C@@]3(C)CC[C@@H]12`, which Potency is on record?
Its Potency is inconclusive: 2.51 µM [rising, full curve, poor fit].

Which Potency does the source give for `CCCCCn1cc(C(=O)c2cccc3ccccc23)c2ccccc21` here?
The Potency was “inactive”.

Which Potency does the source give for `Cc1nc(-c2ccc(N(C)C)cc2)cc([C@H]2CN3CC[C@H]2C[C@@H]3CNC(=O)C(C)(C)C)n1` here?
Its Potency is inconclusive: 44.7 µM [cytotoxic, single point].

With `CCCN1CCNc2cc(Nc3ccccc3)ncc2C1` as the compound, how does the Potency read?
Its Potency is inconclusive: 22.4 µM [cytotoxic, partial curve, poor fit].

Which Potency does the source give for `CNCc1cccnc1` here?
The Potency was “inactive”.

For `O=C1NC2(CCCN(Cc3cccnc3)C2)Oc2ccccc21` (stereo not drawn), which Potency is on record?
Its Potency is inconclusive: 12.6 µM [cytotoxic, full curve, poor fit].

Which Potency does the source give for `CC(Cc1ccc(OCC(=O)O)cc1)NCC(O)c1cccc(Cl)c1` (stereo not drawn) here?
The Potency was inconclusive: 22.4 µM [cytotoxic, partial curve, poor fit].

For `CC[C@H]1CN2CC[C@H]1C[C@@H]2CNC(=O)CC(C)(C)CC(=O)O`, which Potency is on record?
Its Potency is “inactive”.

For `C[C@@H]1C[C@@H](O)[C@]2(O)O[C@@H]3C[C@@]4(C=O)C(CC[C@@H]5C4CC[C@]4(C)[C@@](O)(C6=CC(=O)OC6)CC[C@]54O)C[C@H]3OC2O1` (stereo partly drawn), which Potency is on record?
The Potency was inconclusive: 2.92 µM [cytotoxic, full curve, poor fit].

Which Potency does the source give for `CCOCCCNC(=O)N1[C@H]2CC[C@@H]1c1cnc(-c3ccccc3)nc1C2` here?
Its Potency is “inactive”.

With `CC(C)CN1Cc2ccccc2-n2ccnc2C12CCN(C(=O)C(C)C)CC2` as the compound, how does the Potency read?
Its Potency is “inactive”.

Which Potency does the source give for `Cc1cnc(CCN)n1CC1CC1` here?
The Potency was inconclusive: 39.8 µM [cytotoxic, single point].

With `C=CCCOC(=O)N1C[C@H](C(=O)OCC)[C@H]2c3ccccc3N(CC3CC3)C(=O)[C@]21C` as the compound, how does the Potency read?
The Potency was inconclusive: 17.8 µM [cytotoxic, single point].

Which Potency does the source give for `CC=C(C)C(=O)O[C@H]1C(C)=C2[C@@H]3OC(=O)[C@@](C)(O)[C@@]3(O)[C@@H](OC(=O)CCC)C[C@](C)(OC(C)=O)[C@@H]2[C@@H]1OC(=O)CCCCCCC` here?
Its Potency is inconclusive: 1.71 µM [cytotoxic, partial curve].

Which Potency does the source give for `Cc1nc(-c2ccccc2Br)cc([C@H]2CN3CC[C@H]2C[C@@H]3CNS(=O)(=O)c2cccs2)n1` here?
The Potency was “inactive”.

With `COc1ccc(CNC[C@H]2C[C@@H]3CCN2C[C@@H]3c2cc(C3CCCCC3)nn2C)cc1` as the compound, how does the Potency read?
The Potency was “inactive”.

With `C[C@]12CC[C@@H](O[C@@H]3O[C@H](CO)[C@@H](O)[C@H](O)[C@H]3O)C[C@@]1(O)CCC1C2CC[C@]2(C)[C@@H](C3=CC(=O)OC3)CC[C@]12O` (stereo partly drawn) as the compound, how does the Potency read?
Its Potency is inconclusive: 1.3 µM [cytotoxic, full curve].
